Among all 76,000 compounds or so, about 1,900 (2.5%) were called active. This list was built around the results that the source calls inconclusive (neither active nor inactive); the mix of calls is not that of the screen. The call rests on the fitted dose curve; in most records, active means well fitted inhibition curve with a large enough effect; inconclusive means small, poorly fitted or top-dose-only effect; inactive means flat fitted curve, though single readings scatter. Where the call is inconclusive, the potency comes from a doubtful curve fit.
Target: Luciferin 4-monooxygenase (Photinus pyralis) (UniProt P08659)
UniProt P08659, sequence (P08659 whole entry, looked up): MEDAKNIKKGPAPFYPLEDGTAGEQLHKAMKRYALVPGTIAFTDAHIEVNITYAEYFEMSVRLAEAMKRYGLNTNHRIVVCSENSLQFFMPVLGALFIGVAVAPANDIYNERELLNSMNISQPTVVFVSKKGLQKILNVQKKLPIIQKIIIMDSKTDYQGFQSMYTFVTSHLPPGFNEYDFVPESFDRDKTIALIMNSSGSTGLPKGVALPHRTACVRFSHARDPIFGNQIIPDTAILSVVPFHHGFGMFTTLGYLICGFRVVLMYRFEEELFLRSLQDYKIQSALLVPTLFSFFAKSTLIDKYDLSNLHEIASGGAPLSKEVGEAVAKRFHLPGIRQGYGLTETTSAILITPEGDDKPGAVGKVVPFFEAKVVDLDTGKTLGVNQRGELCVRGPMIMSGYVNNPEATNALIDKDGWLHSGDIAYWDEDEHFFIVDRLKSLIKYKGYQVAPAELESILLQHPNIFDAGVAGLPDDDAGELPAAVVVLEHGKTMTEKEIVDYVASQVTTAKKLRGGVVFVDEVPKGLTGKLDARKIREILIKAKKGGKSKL
Experiment: Firefly luciferase inhibition profiling of diverse chemical library using quantitative high-throughput screening; further: nearly all actives have a fitted effect of over 65% in size
Conditions: purified P. pyralis luciferase, luminescence, biochemical; series mostly up to 115 µM
Source text: Firefly (Photinus pyralis) luciferase is one of the most commonly used transcriptional reporters for a number of reasons. It is considered one of the more dynamically responsive reporters - that is, responsive to changes in reporter transcription - as it requires no post-translational modifications and is enzymatically active directly after protein synthesis (Wood, 1998). Additionally, the half-life of the luciferase protein is short relative to other reporter-gene products (Wood, 1995). Whereas reporters with long half-lives potentially allow for increased signal due to accumulation of reporter-gene product, once accumulated in the cell, dynamic changes in reporter-gene expression may be difficult to detect(Fan and Wood, 2007; Almond et al., 2004). It has been shown that wild-type P. pyralis luciferase has a half-life of approximately four hours in mammalian cells (Thompson et al., 1991). Firefly luciferase reporter-gene assays are also generally considered one of the most sensitive assay types (Wood, 1995; Wood, 1998). Although light produced in a bioluminescence reaction is of lower intensity than that produced during fluorescence emission, this is offset by little to no background light inherent to luminescent assays. Thus the luciferase reporter can be expressed at much lower levels than fluorescent proteins while still providing robust signal. However, it was initially observed, in 1991, by Thompson et al., that compounds that resemble the substrates of firefly luciferase (FLuc) can act as competitive inhibitors of the enzyme, and that these compounds, upon interaction with luciferase in the cell, can actually stabilize the protein and increase its half-life. Accumulated intracellular FLuc protein can be measured as an increase in luminescence signal, upon addition of detection reagents (which contain high concentrations of FLuc substrates) commonly used in high-throughput screening. In cell-based reporter gene assays that use FLuc as the reporter gene to quantitate the potential influence of a given compound against the target biology, this apparent increase in luminescence can mistakenly be interpreted as identification of a compound that is active against the target of interest. FLuc inhibitory compounds that stabilize the FLuc protein will give an identical read-out, making it difficult to distinguish compounds that are active against the target from those active against FLuc. In summary, the results generated here constitutes a valuable resource for the scientific community and provides insight on identifying compounds with inhibitory activity for the commonly-used reporter, firefly luciferase. References: -Almond, B., Zdanovsky, A., Zdanovskaia, M., Ma, D., Stecha, P., Paguio, A., Garvin, D., and Wood, K. (2004). Introducing the Rapid Response Reporter Vectors. Promega Notes 87, 18-22. -Fan, F., and Wood, K.V. (2007). Bioluminescent assays for high-throughput screening. Assay Drug Dev Technol 5, 127-136. -Thompson, J.F., Hayes, L.S., and Lloyd, D.B. (1991). Modulation of firefly luciferase stability and impact on studies of gene regulation. Gene 103, 171-177. -Wood, K.V. (1998). The chemistry of bioluminescent reporter assays. Promega Notes 65, 14-20. -Wood, K.V. (1995). Marker proteins for gene expression. Curr Opin Biotechnol 6, 50-58.
Reagents: 50mM Tris acetate, pH 7.5; 10mM Mg acetate; 10uM D-luciferin (Sigma #L9504); 10uM ATP; 0.01% Tween-20; 0.05% BSA; 10nM P. pyralis luciferase (Sigma #L9506) Control compounds used were two known firefly luciferase inhibitors (compounds (2) and (5) in Auld et al., 2010), and DMSO. Assay Summary: Three microliters containing firefly luciferase substrates in buffer (final concentrations: 50mM Tris acetate, pH 7.5, 10mM Mg acetate, 0.01% Tween-20, 0.05% BSA, 10uM D-luciferin, and 10uM ATP) are dispensed into each well of a Greiner white, solid-bottom 1536-well format plate using a flying reagent dispenser (FRD). […]
Tags describe the fitted curve by direction and shape.

SMILES	Potency
OCc1cccc(-c2ccc3ncc(Nc4ccccc4Cl)n3n2)c1	active: 22.4 µM
Cc1ccc(C2=NC3(CCN(C(=O)CSc4ccccc4)CC3)ON2)cc1	inconclusive: 44.7 µM [inhibitor, partial curve]
O=C(NC1CCCCC1)N1Cc2[nH]cnc2C[C@H]1c1nc(-c2ccc(Cl)cc2)no1	inconclusive: 50.1 µM [inhibitor, partial curve]
Cc1ccc2oc(C(=O)N(C)CCc3ccccc3)c(C)c2c1	inconclusive: 11.2 µM [inhibitor, full curve, poor fit]
CC(C)CNC(=O)C1CCN(C(=O)c2ncn3c2COC(c2ccc(F)cc2)C3)CC1 (centres undefined)	inconclusive: 44.7 µM [inhibitor, partial curve]
COCC1CN(C2CCC2)CC12CCN(C(=O)Cc1ccc(OC)cc1)CC2 (centres undefined)	inactive
Cc1cc(C2CCCCN2C(=O)Nc2cccc(-c3csc(C)n3)c2)no1 (centres undefined)	inconclusive: 50.1 µM [inhibitor, partial curve]
O=C(NCc1ccccc1F)C1CCN(C(=O)c2ncn3c2COC(c2ccc(Cl)cc2)C3)CC1 (centres undefined)	inconclusive: 39.8 µM [inhibitor, partial curve]
COc1cccc(OCc2nc(C(=O)N[C@H]3CCCCNC3=O)co2)c1	inactive
COc1ccc(CN2C(=O)[C@@H]3C[C@@H](CN3C(=O)c3cnccn3)Oc3ccccc32)cc1	inactive
COC[C@@H]1CN(C(=O)c2cccn2C)C[C@H]1c1ccccn1	inactive
CC(C)N1CCN(CCN2CC3(CCN(C(=O)CCN)CC3)OC2=O)CC1	inactive
Cc1cn2nc(C(=O)Nc3ccc4c(c3)OCCO4)cc2c(N2CCSCC2)n1	active: 11.2 µM
N#Cc1cccc(-c2cn3c(n2)N(C(=O)c2ccccc2F)CCC3)c1	inconclusive: 35.5 µM [inhibitor, partial curve]
CN(C(=O)[C@@H]1C[C@@H](c2ccc(F)cc2)N([S+](=O)([O-])c2ccccc2)C1)c1cccnc1	inactive
O=C(c1ccc2c(c1)OCO2)N1CCC2(CC1)CC(c1cccnc1)=NO2	inactive
Cc1csc(NC(=O)c2nc3c(o2)CCN(Cc2cc(F)ccc2F)CC3)n1	active: 28.2 µM
Cc1ccc(NC(=O)Nc2ccc(C)n(CC(=O)Nc3ccccc3)c2=O)cc1	active: 0.794 µM
COc1ccc(-c2noc(CC3CCN(C(=O)c4ccc(OC)cc4OC)CC3)n2)cc1	inactive
Cc1ccc(NC2=N[C@H]3[C@@H](O)[C@H](O)C[C@H](C(=O)N4CCC(C(N)=O)CC4)[C@H]3S2)cc1	active: 50.1 µM
Cc1cc(C(=O)N[C@@H]2CCOC[C@H]2OCC(=O)O)sc1-c1ccccc1	inconclusive: 89.1 µM [inhibitor, single point]
CN(CC1CCOCC1)C(=O)Nc1ccc(Cl)cc1	inconclusive: 35.5 µM [inhibitor, partial curve]
Cc1ccc(NC(=O)CCC2CCN(C(=O)c3ccccc3)CC2)cc1F	inconclusive: 14.1 µM [inhibitor, full curve]

SMILES	Potency
O=C(Nc1ccc(F)cc1Cl)c1cc2n(n1)CC(c1ccc3c(c1)OCO3)OC2 (centres undefined)	inconclusive: 50.1 µM [inhibitor, partial curve]
COc1ccc(-c2cc(N3CCC(NC(=O)c4cccc(N(C)C)c4)C3)n[nH]2)cc1 (centres undefined)	inconclusive: 39.8 µM [inhibitor, partial curve]
O=C(c1ccc(Cl)cc1)N1CCC(n2cnnc2-c2ccccc2)CC1	inactive
Cc1ccc(C)c(NC(=O)CN2C(=O)C(c3ccccc3)=NC23CCCC3)c1	inactive
Cc1cc2ncc(C(=O)N3CCC4(CC(=O)NC4=O)C3)c(=O)n2[nH]1 (centres undefined)	inactive
Cc1noc(C)c1Cc1ccc(C(=O)N2CCc3c(nc4cc(-c5ccccc5)[nH]n4c3=O)C2)o1	inconclusive: 31.6 µM [inhibitor, full curve]
C[S+](=O)([O-])CCn1ncc2cc(OCc3cccc(-c4ccccc4)c3)ccc21	active: 14.1 µM
Cc1ccc(C2Cn3cnc(C(=O)N4CCC(C(=O)NCCC(C)C)CC4)c3CO2)cc1 (centres undefined)	inconclusive: 56.2 µM [inhibitor, partial curve, poor fit]
CCNC(=O)c1ccc(OC2CCN(C(=O)c3ccnn3C)C2)nc1 (centres undefined)	inactive
CCc1nc2c(=O)n(CC(=O)NCc3ccc(F)cc3Cl)nc(C)c2s1	inconclusive: 39.8 µM [inhibitor, partial curve]
CN(C)Cc1ccc(-c2cc3c(ccn3Cc3cccnc3)c(C3=CCOCC3)n2)cc1	inactive
CN(CC1CCOC1)C(=O)Nc1cccc(Br)c1 (centres undefined)	inactive
C=CCN(C)C(=O)[C@@H](C)C1CC[C@@]2(C)Cc3sc(-c4cccnc4)nc3[C@@H](C)[C@@H]2[C@H]1O (some centres undefined)	inconclusive: 20 µM [inhibitor, full curve, poor fit]
Cc1ccc2c(C(=O)Nc3ccc(N4CCOCC4)cc3)cc(NC(=O)C3CCC3)cc2n1	inconclusive: 44.7 µM [inhibitor, partial curve]
Cc1ccc(C(=O)N2CCC(CCC(=O)N3CCN(c4ccccn4)CC3)CC2)cc1	active: 20 µM
CCCn1cc(-c2ccncc2)cc1C(=O)N1CCN(c2ccccc2OC)CC1	inactive
Cc1ccoc1-c1nc2ccncc2[nH]1	inconclusive: 126 µM [inhibitor, partial curve]
COc1ccc(-c2nc3c([nH]2)CC(C)(C)CNC3=O)cc1OC	inconclusive: 44.7 µM [inhibitor, partial curve]
CC(C(=O)NCC1CC1)N1C(=O)COc2ccc(C(=O)COc3ccccc3Cl)cc21 (centres undefined)	inconclusive: 44.7 µM [inhibitor, partial curve]
Cc1nc(CN2CC3(CCN(C)C3)c3cc(C(=O)NCc4ccccc4)ccc32)cs1 (centres undefined)	inactive
O=C(O)c1ccc(CN[C@@H]2CO[C@H](CNS(=O)(=O)c3ccccc3)[C@H]2O)cc1	inactive
CS(=O)(=O)N1C[C@H]2CCN(C(=O)c3cc[nH]c(=O)c3)C[C@H]21	inconclusive: 56.2 µM [inhibitor, partial curve]
CCOc1ccc(Cc2nc(C3CC(=O)N(C4CCCCC4)C3)no2)cc1 (centres undefined)	inactive

SMILES	Potency
COC[C@H]1CCCN1C(=O)C[C@@H]1O[C@H](CNC(=O)Nc2ccccc2)[C@@H](O)[C@H]1O	inconclusive: 79.4 µM [inhibitor, partial curve]
COc1cccc(Nc2ncc(-c3cccc(N(C)C)c3)c3c2OCC3)c1	inconclusive: 10 µM [inhibitor, full curve]
Fc1ccccc1-c1cc2c(cn1)CN(Cc1cccnc1)CCN2	active: 31.6 µM
O=C(CCc1c[nH]c2ccccc12)N1CCC2(CCCCO2)CC1	inconclusive: 50.1 µM [inhibitor, partial curve, poor fit]
Cc1ccc(C(=O)NCc2ccnc3[nH]ccc23)cc1	inconclusive: 89.1 µM [inhibitor, partial curve]
COc1ccc([C@H]2C[C@@H](O)[C@@H](O)[C@@H]2NC(=O)c2nc3ccccc3s2)cc1	active: 44.7 µM
c1coc(-c2nnc([C@H]3CCN(Cc4cccs4)C3)o2)c1	active: 70.8 µM
CCOCCOC1CCN(C(=O)c2ccc3[nH]ccc3c2)CC1	inconclusive: 35.5 µM [inhibitor, partial curve]
Cn1cc(CN2CCN3CCCC3C2)c(-c2ccc(C3CCCCC3)cc2)n1 (centres undefined)	inconclusive: 44.7 µM [inhibitor, partial curve]
O=C(c1ccccn1)N1CCCC(n2cc(-c3nc(-c4ccccc4)no3)nn2)C1 (centres undefined)	inconclusive: 50.1 µM [inhibitor, partial curve, poor fit]
COc1ccc(-c2cc(C[C@@H]3CC[C@H](O)[C@@H](CNC4CCN(C)CC4)O3)no2)cc1	inconclusive: 100 µM [inhibitor, partial curve, poor fit]
COc1ccc(-n2cc(-c3ccnc(N(C)Cc4cnccn4)n3)cn2)cc1	inconclusive: 39.8 µM [inhibitor, partial curve]
OC[C@@H]1CN(Cc2ccoc2)C[C@H]1c1nc(-c2ccncc2)no1	inconclusive: 44.7 µM [inhibitor, partial curve]
CN1CCN(C(=O)c2csc(N3CCN(c4ccc(Cl)cc4)CC3)n2)CC1	inconclusive: 50.1 µM [inhibitor, partial curve]
Cc1c(F)cccc1NC(=O)Nc1cccc(-c2ccc(N3CCOCC3)nn2)c1	active: 0.631 µM
COc1ccc(-c2cc(N3CCN(C(=O)c4cc5ccccc5[nH]4)CC3)n[nH]2)cc1	inconclusive: 14.1 µM [inhibitor, full curve]
Cc1ccc(C2=NC3(CCN(C(=O)c4ccccc4C)CC3)ON2)cc1	inconclusive: 44.7 µM [inhibitor, partial curve]
c1ccc(-c2ccnc3nc(CCC4CCCC4)nn23)nc1	inconclusive: 44.7 µM [inhibitor, partial curve]
Cc1noc2c(N3CCOCC3)cc(-c3cccnc3)nc12	inactive
Cc1ccc(N2CCC(NC(=O)c3ccc(N(C)C)cc3)C2=O)cc1C (centres undefined)	inconclusive: 44.7 µM [inhibitor, partial curve]
O=C(c1ccco1)N1Cc2[nH]cnc2C[C@H]1c1nc(-c2ccncc2)no1	inconclusive: 126 µM [inhibitor, single point]
c1ccc(CCCc2noc(-c3ccc(NCc4ccccn4)nc3)n2)cc1	active: 12.6 µM
Cc1cc(NC(=O)c2ccc3c(c2)N(C)C2CCCCCN2C3=O)ccc1Cl (centres undefined)	inconclusive: 10 µM [inhibitor, full curve]
